Some of the results follow.
system: T1, Caupolican (Caup) homeodomain DNA-binding domain; assay: PBM E-score (8-mer, recovered from the published 9-mer minima) (E-score (dimensionless, -0.5 to 0.5)); Drosophila protein; higher = stronger relative binding preference, active = 0.31 or more
T1 sequence: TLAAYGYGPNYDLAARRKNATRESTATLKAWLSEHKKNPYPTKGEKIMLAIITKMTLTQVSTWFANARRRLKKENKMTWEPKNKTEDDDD
How it was run: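 Caup's homeodomain DNA-binding domain (residues 214-303) was made by in vitro transcription and translation and applied at 100 nM to custom-designed protein binding microarrays. Each value is an enrichment score that gives relative binding preference for a short DNA word, with higher meaning stronger. The 8-mer values were recovered from published 9-mer scores, each of which was the minimum of its two constituent 8-mer scores. A cutoff of 0.31 marks candidate sites.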

Sequence	PBM E-score
CCTGAACG	inactive: -0.0963
CTAACGAG	inactive: 0.0026
GATGCAGA	inactive: -0.0465
AGGCCCCA	inactive: -0.292
CCAACCGA	inactive: -0.122
ATAGTGCA	inactive: 0.0829
ACTGCTAA	inactive: -0.0328
CACTAGAC	inactive: -0.0475
AGCTCACA	inactive: 0.0668
CCATCCAG	inactive: -0.0848
CTCGCGGA	inactive: -0.204
AAATAGCA	inactive: 0.112
GACATTGA	inactive: 0.191
ATTTCCAA	inactive: 0.0532
AGCTTTAT	inactive: 0.03
GGATCCTA	inactive: 0.0286
AACTTAGA	≥ 0.127
AGATGGGG	inactive: -0.175
AGCCATGC	inactive: -0.0552
CGTCTGGA	inactive: -0.11
ACGAGCGT	inactive: -0.0216
CTAGAGAA	inactive: -0.0678
CTTAGAGA	inactive: -0.0641
CGACTCAC	inactive: -0.0855
CATATCCC	inactive: 0.0582

Sequence	PBM E-score
GGAAGCAC	inactive: -0.0375
AGGGGAAT	inactive: -0.0662
CGTACCTA	inactive: 0.0287
TATTGCAA	inactive: 0.109
CGCAAAAG	inactive: -0.143
GATGCCCA	inactive: -0.0463
GAGGATGC	inactive: -0.00785
TTAGTGAA	inactive: 0.101
ACTATATG	inactive: 0.107
CAAGGCCC	inactive: -0.247
AGAATCGG	inactive: -0.114
CAAAAGAC	inactive: 0.03
TAAAGTCA	≥ 0.0854
ATGTAGCA	inactive: 0.265
AAGCAAGG	inactive: -0.0328
AACCTCAG	inactive: -0.0935
TACCAGGA	inactive: 0.0883
CGGGGAGA	inactive: -0.184
CCCTAAAG	inactive: -0.168
CTGAGCTC	inactive: -0.143
CGTGATCC	inactive: -0.129
CTGGCGCC	inactive: -0.262
CACCCTAC	inactive: 0.114
CACATTGC	inactive: 0.108
CTGCCTTA	inactive: -0.137

Sequence	PBM E-score
GCATATAA	inactive: 0.134
CTCGCTCA	inactive: -0.166
CTCCGCAG	inactive: -0.249
ACTACGAC	inactive: 0.0897
ATATCTGG	inactive: 0.0284
CTTCATTC	inactive: -0.0755
TAAATCCA	inactive: 0.0483
ATACGTGG	inactive: 0.0844
GGTTTGAC	inactive: 0.0197
CGTAGAAG	inactive: -0.0399
AGTGAACT	inactive: 0.0325
CTTCCCGC	inactive: -0.131
CATACGAA	inactive: 0.0844
GTCCCCTA	inactive: -0.0942
GAGTTGAA	inactive: -0.00985
GATAAGGC	inactive: -0.0913
AAAAGGCG	inactive: -0.0753
CCTAATCC	inactive: 0.0034
AATAAATC	inactive: -0.0451
AGAGCGGG	inactive: -0.187
CGAAGGCC	inactive: -0.288
AACTGGCT	≥ -0.0296
AGGGCCCA	inactive: -0.258
ACCCATCA	inactive: 0.034
ATCCGATG	inactive: 0.0252

Sequence	PBM E-score
ATCGGTGG	inactive: -0.115
GATCTGGC	inactive: -0.0642
GGGGGCAC	inactive: -0.24
CAGAGCAC	inactive: -0.0664
GAATGGGC	inactive: -0.0726
CGCACGCG	inactive: -0.117
CCCCTTCC	inactive: -0.267
ATTCACAA	≥ 0.162
ACTAAAGG	inactive: -0.012
CGCGTTTA	inactive: 0.00596
AAGGAGAC	inactive: -0.0118
CATGGGAA	inactive: 0.0743
CTTGTGGA	inactive: 0.0455
ATGTACGG	inactive: 0.211
CTAATTAC	inactive: 0.127
AGAGTCAA	inactive: -0.0486
AGCAATAT	inactive: 0.129
GGTAATAA	inactive: 0.179
ACATGCTA	active: 0.352
CGAAGCCG	inactive: -0.15
AGGTAGCA	inactive: -0.0174
AGTTGGCG	inactive: -0.102
GATTATCA	inactive: 0.171
GACAGAGA	inactive: 0.0812
CGACGTCG	≥ 0.00514

Sequence	PBM E-score
GATGGTAA	inactive: 0.0084
AATAAAAA	inactive: 0.192
GAGTTAGA	inactive: -0.112
ACCATAGG	inactive: -0.0178
CGAAGTCG	inactive: -0.0271
AAGGGGCT	≥ -0.105
CAAGTGTG	inactive: 0.0193
CGAACACG	inactive: 0.258
CCCACGCG	inactive: -0.233
GTGCTTGA	inactive: -0.00605
GCGTATCC	inactive: -0.0184
ACCCATTA	inactive: 0.0233
CGGTACGA	inactive: -0.0387
GGCTTGGA	inactive: -0.0906
CCGATGCG	inactive: -0.173
GGTGACCA	inactive: -0.158
CGACCCTA	inactive: -0.119
CTTAAATA	inactive: -0.0266
AGTCGTAT	inactive: 0.0865
GCCAGTTA	inactive: -0.0296
GGCGGACA	inactive: 0.0078
AATTGCCG	inactive: -0.0697
ACTCCCCG	≥ -0.125
CCGGACGG	inactive: -0.297
CTCTAGGC	inactive: -0.16

Sequence	PBM E-score
CTGCGTGC	inactive: -0.0735
CCCTGCTC	inactive: -0.156
GGAGACCA	inactive: -0.182
CGGCATGA	inactive: -0.00957
CATATTCA	inactive: 0.172
AGGGTGAA	inactive: -0.0944
CTTTACCC	inactive: -0.00063
CCTGAAAC	inactive: -0.0343
CACTGATC	inactive: 0.00761
CGCCCTTA	inactive: -0.15
AATGATAC	inactive: 0.183
CACTTCAA	inactive: 0.0925
CGAGTACC	inactive: 0.0961
AGGCGCAC	inactive: -0.158
TTCTGAAA	inactive: 0.0593
CATTTGCC	inactive: -0.0757
ATACTGTA	inactive: 0.219
ACAACCGG	inactive: 0.111
GACGTCTA	inactive: -0.0522
AAAGAGGA	inactive: -0.11
GTATATCA	inactive: 0.235
GCCGAGCA	inactive: -0.17
AAATTAGC	inactive: 0.0396
CGGTCAGC	inactive: -0.134
CACCTCCC	inactive: -0.183

Sequence	PBM E-score
AAACAACT	inactive: 0.246
GGAAGGGA	inactive: -0.267
ACGGCCGC	inactive: -0.183
AGAAGGGA	inactive: -0.161
GGAGGTTA	inactive: -0.0798
GTTGGAGA	inactive: -0.0326
CTCTCCCA	inactive: -0.151
GGGTTCAA	inactive: -0.054
ATTTTTCG	inactive: 0.124
CCGGATAA	inactive: -0.0194
GTATATGA	inactive: 0.179
ATTTACTA	inactive: 0.194
ACGGCAGG	inactive: -0.229
TCCTCTCA	inactive: -0.0753
GATGGAAA	inactive: 0.0241
ACCAAGTA	inactive: 0.0922
ACGGGAAT	inactive: -0.0246
CTATTGTC	inactive: 0.0455
GTTGTGAA	inactive: 0.137
AATCGCCT	inactive: -0.0401
ATGGCCAT	≥ 0.0724
ATACCGTA	inactive: 0.0198
CTTAGATA	inactive: -0.0232
GTCGGGTA	inactive: 0.0154
GGGTCTAA	inactive: -0.0631

Sequence	PBM E-score
CTGGGGTA	inactive: -0.13
GCCCACCC	inactive: -0.104
GTTACTAA	inactive: 0.217
CTGTTCGC	inactive: 0.0582
AAAATCGC	inactive: -0.0248
CGGGGAAC	inactive: -0.0506
CCGTACAG	inactive: 0.0104
GGCCTACA	inactive: -0.0428
CGACCTAC	inactive: -0.0968
ACCCGCGC	inactive: -0.121
GATGGGGC	inactive: -0.192
AACGCTCG	inactive: -0.118
CCAAACTC	inactive: -0.0814
ATCATAGG	inactive: -0.0228
AAACCCAA	≥ 0.0724
ATGAATTC	inactive: 0.00101
CAATCACA	inactive: 0.196
AACAATCA	inactive: 0.195
ACCGTAGT	inactive: -0.0186
TGTGTAAA	active: 0.318
GCGTTAGC	inactive: -0.0587
ACCCGAAG	inactive: -0.142
CACTTTCC	inactive: -0.0851
CTTAGGAA	inactive: 0.0357
CAAATTAC	inactive: 0.132

Sequence	PBM E-score
GAGACGAC	inactive: -0.011
CCGAAAAA	inactive: 0.037
GTTCAGGA	inactive: 0.00542
AAAAATCA	inactive: 0.11
CCATACAA	inactive: 0.198
GGGTGCGA	inactive: -0.079
TGTTCAAA	inactive: 0.242
AGGTGTCA	inactive: 0.196
AACTTAGG	inactive: 0.00447
GTCTGGCA	inactive: -0.137
ACGATAGG	inactive: -0.0358
AGAGTAAC	inactive: 0.0554
GACGTTAA	inactive: 0.0357
TCAACTAA	inactive: 0.129
ACGGTTCG	inactive: -0.122
CGACTCTC	inactive: -0.0956
GAAAGACC	inactive: -0.123
CCGGCGCC	inactive: -0.253
AAAATAGG	inactive: 0.0632
GAGATGAA	inactive: 0.0213
GCTAGAGA	inactive: -0.0508
AAGCCTCC	inactive: -0.16
GTGACAAC	inactive: 0.303

Source: the supplement of paper PMC3724861
